“And” between values parts separate entries of the source, which are not always exact repeats. Identical values can stand only once. Among all 230,000 compounds or so, about 3,600 (1.6%) were called active. The inconclusive results got no clear call from the source; some entries with a clear call stand among them for comparison. Calls come from the whole dose curve; as a rule, active = well fitted inhibition curve with a large enough effect (not every such curve was filed as active); inconclusive = small, poorly fitted or top-dose-only effect, or another doubt; inactive = no such curve, though single readings can be large or run the other way. Potencies of inconclusive entries are doubtful fits and often do not repeat.
The molecules below were run against Lysine-specific demethylase 4E (Homo sapiens) (UniProt B2RXH2) (assay: qHTS Assay for Inhibitors of Human Jumonji Domain Containing 2E (JMJD2E)). Conditions: JMJD2E catalytic domain, FDH-coupled NADH fluorescence (FDH is formaldehyde dehydrogenase); series mostly up to 57.1 µM; activity change, negative = inhibition: at the top concentration.
Sequence of UniProt B2RXH2 (B2RXH2 whole entry, looked up, the tested form may be a part): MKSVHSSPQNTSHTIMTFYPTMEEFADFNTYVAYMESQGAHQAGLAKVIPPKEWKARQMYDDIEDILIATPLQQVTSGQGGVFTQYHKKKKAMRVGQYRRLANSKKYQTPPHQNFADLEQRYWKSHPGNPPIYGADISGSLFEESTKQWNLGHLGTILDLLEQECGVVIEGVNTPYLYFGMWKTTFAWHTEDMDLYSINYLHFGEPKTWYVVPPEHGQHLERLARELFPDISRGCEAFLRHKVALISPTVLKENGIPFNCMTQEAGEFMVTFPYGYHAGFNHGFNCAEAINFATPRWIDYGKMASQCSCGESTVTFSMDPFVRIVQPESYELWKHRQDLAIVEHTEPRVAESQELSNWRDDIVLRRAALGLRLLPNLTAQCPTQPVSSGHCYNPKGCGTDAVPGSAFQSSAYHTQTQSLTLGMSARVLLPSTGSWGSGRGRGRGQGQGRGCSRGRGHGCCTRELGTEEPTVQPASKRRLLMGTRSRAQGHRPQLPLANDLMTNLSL
Note: nearly all actives have a fitted effect of over 50% in size.
Potency is the fitted concentration of half-maximal effect; tags give direction and shape of the fitted curve.
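Throughout, for activity change, negative = inhibition: 0% = wells with enzyme and -100% = buffer wells without enzyme.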

| Compound | Potency | activity change, negative = inhibition |
| --- | --- | --- |
| CCNC(=O)NC(=O)C(C)OC(=O)c1oc2ccc(OCC)cc2c1C (centres undefined) | inconclusive: 28.2 µM [inhibitor, partial curve] |  |
| CCOc1ccc2nc(CN3CCN(Cc4ccsc4)C(CCO)C3)ccc2c1 (centres undefined) | inconclusive: 28.2 µM [inhibitor, partial curve] |  |
| Cc1cc2cc(C#N)c(NCCNC(=S)NCCCN3CCOCC3)nc2cc1C | inconclusive: 31.6 µM [inhibitor, partial curve] |  |
| N#Cc1ccsc1NC(=O)c1cccc([N+](=O)[O-])c1 | inconclusive: 17.8 µM [inhibitor, single point] |  |
| CSc1ccc(/C=N/NC(=O)CNc2cccc3ccccc23)cc1 |  | inactive: -15.7% |
| O=C(NCC1CCCO1)c1ccc2c3n(nc2c1)-c1ccccc1CO3 (centres undefined) | inconclusive: 25.1 µM [inhibitor, partial curve] |  |
| O=C(N/N=C/c1ccc(O)cc1)/C(=C/c1ccccc1)CCO |  | inactive: -3.53% |
| O=C(CSc1nnc(-c2ccccc2)o1)Nn1cnnc1 | inconclusive: 39.8 µM [inhibitor, single point] |  |
| Cc1ccc(C2CC(=O)NC(SCCC(C)C)=C2C#N)cc1 (centres undefined) |  | inactive: -4.71% |
| CCN(Cc1ccccc1)C(=O)C1CCN(Cc2ccc(OC)c(OC)c2OC)CC1 | inconclusive: 39.8 µM [inhibitor, single point] |  |
| COc1cc(-c2nnc(SCc3cc(=O)oc4cc(O)c(O)cc34)o2)cc(OC)c1OC | inconclusive: 14.1 µM [inhibitor, partial curve] |  |
| O=C1CCCc2c1nc(-c1ccco1)n2O | inconclusive: 25.1 µM [inhibitor, partial curve] |  |
| O=C(c1ccco1)n1nc(-c2cccnc2)nc1NCc1ccco1 | inconclusive: 35.5 µM [inhibitor, single point] |  |
| CCCCCc1cc(=O)oc2c(C(CCN3CCN(c4ccccc4)CC3)c3ccc4c(c3)OCO4)c(OC)cc(OC)c12 (centres undefined) | inconclusive: 25.1 µM [inhibitor, partial curve] |  |
| Fc1c(F)c(F)c(/C=N/NC(=S)Nc2cccnc2)c(F)c1F |  | inactive: 0.684% |
| Cc1cc(C)cc(-n2c(C)cc(/C=N\NC(=O)COc3cccc4cccnc34)c2C)c1 | inconclusive: 25.1 µM [inhibitor, single point] |  |
| CC(C)C(C(=O)Nc1ccc(N2CCOCC2)cc1)N1C(=O)c2ccccc2C1=O (centres undefined) | inconclusive: 35.5 µM [inhibitor, single point] |  |
| CCOc1ccccc1/C=N/NC(=O)c1cccc(S(=O)(=O)N2CCOCC2)c1 | inconclusive: 12.6 µM [inhibitor, partial curve] |  |
| O=C1NC(c2ccc(Br)cc2)=N/C1=C/c1ccco1 | inconclusive: 35.5 µM [inhibitor, single point] |  |
| CCOC(=O)/C(C#N)=C/c1cc2ccccc2nc1Cl |  | inactive: -0.782% |
| O=C(O)c1ccc(-c2nc(-c3ccc(Cl)cc3Cl)cs2)cc1 | inconclusive: 31.6 µM [inhibitor, partial curve] |  |
| NC(=O)c1cccc2cc3ccccc3cc12 | inconclusive: 28.2 µM [inhibitor, partial curve] |  |
| C=CCOc1ccc(C2c3c(oc4ccccc4c3=O)C(=O)N2CCCN2CCOCC2)cc1 (centres undefined) | inconclusive: 39.8 µM [inhibitor, single point] |  |

| Compound | Potency | activity change, negative = inhibition |
| --- | --- | --- |
| COc1cc2c(cc1NC(=O)COC(=O)c1ccccc1)oc1ccccc12 | inconclusive: 0.501 µM [inhibitor, partial curve, poor fit] |  |
| COc1cc(OC)cc(-n2nc(C(=O)NCCCN3CCOCC3)c3ccccc3c2=O)c1 | inconclusive: 39.8 µM [inhibitor, single point] |  |
| Cc1cc(-c2ccccc2)nc2cc(C(=O)NCCCn3ccnc3)nn12 | inconclusive: 35.5 µM [inhibitor, partial curve] |  |
| C#CC[N+](C)(C)CC#Cc1ccccc1 | inconclusive: 39.8 µM [inhibitor, single point] |  |
| C#CCOCCOCCOCCNc1nc(N2CCN(C(=O)[C@H]([C@@H](C)CC)n3cc([C@@H](N)CO)nn3)CC2)nc(N2CCN(C(=O)[C@H](Cc3cc4ccccc4[nH]3)n3cc([C@@H](N)C(C)CC)nn3)CC2)n1 (some centres undefined) |  | inactive: -2.39% |
| Cc1cc(N2CCOCC2)ccc1/C=C\[N+](=O)[O-] |  | inactive: -2.79% |
| COC(=O)c1sc2cnccc2c1N | inconclusive: 28.2 µM [inhibitor, partial curve] |  |
| CCN1CCN(c2c(Cl)cccc2NC(=O)c2ccc3nsnc3c2)CC1 |  | inactive: 0.602% |
| Cc1noc(C)c1COc1ccc(C(=O)OC(C)C(=O)Nc2ccc(N3CCOCC3)cc2)cc1 (centres undefined) |  | inactive: -0.169% |
| Cn1c(-c2cc3c(C(F)(F)F)nn(C)c3s2)n[nH]c1=S | inconclusive: 25.1 µM [inhibitor, partial curve] |  |
| COc1cc(CN2CCC(C(=O)N3CCN(c4ccccc4F)CC3)CC2)ccc1O | inconclusive: 39.8 µM [inhibitor, single point] |  |
| CC(=O)c1ccc(NC(=O)COC(=O)c2ccccc2Nc2ccccc2)cc1 | inconclusive: 20 µM [inhibitor, partial curve] |  |
| O=C(COC(=O)/C=C/c1ccco1)NCc1ccc2c(c1)OCO2 |  | inactive: -13.1% |
| O=C1c2ccccc2S(=O)(=O)N1CC(O)Cn1ccc2ccccc21 (centres undefined) |  | inactive: 0.482% |
| COC(=O)c1sccc1N/N=C/c1ccc(OC)c(OC)c1OC | inconclusive: 28.2 µM [inhibitor, partial curve] |  |
| CCN(CC)S(=O)(=O)c1ccc(O)c(NC(=O)c2ccc(N3CCOCC3)c([N+](=O)[O-])c2)c1 |  | inactive: 5.16% |
| COc1ccc(Nc2ncnc3sc(-c4ccccc4)cc23)cc1 | inconclusive: 31.6 µM [inhibitor, partial curve] |  |
| COC(=O)C1CSc2[nH]c(=O)sc2C1c1ccccc1 (centres undefined) |  | inactive: -2.63% |
| Cc1cc(OCC(=O)O)c2cccc(C)c2n1 | inconclusive: 35.5 µM [inhibitor, single point] |  |
| COC(=O)c1cccc(Cn2c(Cl)c(/C=N/Nc3ccccc3C)sc2=O)c1 | inconclusive: 15.8 µM [inhibitor, partial curve] |  |
| CCC(C)NC(=O)CSC1=Nc2ccccc2C2=NC(CCC(=O)NCc3ccco3)C(=O)N12 (centres undefined) | inconclusive: 25.1 µM [inhibitor, partial curve] |  |
| CC1=CN2C(=NC(=O)CC2(C)C(=O)N(CC(=O)NC2CCCC2)c2ccccc2C)C=C1 (centres undefined) | inconclusive: 28.2 µM [inhibitor, partial curve] |  |
| COc1ccc2ccc(=O)oc2c1 | inconclusive: 31.6 µM [inhibitor, partial curve] and inconclusive: 28.2 µM [inhibitor, partial curve] |  |

| Compound | Potency | activity change, negative = inhibition |
| --- | --- | --- |
| Cc1noc(NC(=O)c2ccccc2)c1C#N |  | inactive: 7.22% |
| CCCCC(=O)Nc1sc2c(c1-c1nc3ccccc3s1)CCN(C(C)=O)C2 | inconclusive: 35.5 µM [inhibitor, single point] |  |
| Cc1ccc(NC(=O)CCSc2nnnn2-c2ccc3c(c2)OCO3)cc1C |  | inactive: 2.17% |
| COc1ccc(NS(=O)(=O)c2cc(NC(=O)C3CCCO3)ccc2N2CCCC2)cc1 (centres undefined) | inconclusive: 39.8 µM [inhibitor, single point] |  |
| O=C(O)/C(=C\c1ccccc1Cl)c1ccc(S(=O)(=O)N2CCCCC2)s1 |  | inactive: -3.31% |
| CCOc1ccc(N)cc1OC | inconclusive: 39.8 µM [inhibitor, single point] |  |
| COc1ccc(/C=C/C(=O)NC(=S)NN2CCCCC2c2cccnc2)cc1 (centres undefined) | inconclusive: 39.8 µM [inhibitor, single point] |  |
| CCCCN(CCCC)C(=O)/C=C/c1cccc([N+](=O)[O-])c1 |  | inactive: 2.87% |
| O=C(NC1CCCCC1)N(CCN1CCCC1)Cc1cc2cc3c(cc2[nH]c1=O)OCCO3 | inconclusive: 31.6 µM [inhibitor, partial curve] |  |
| CS(=O)(=O)N(CC(=O)NCc1ccncc1)Cc1ccc(Cl)cc1 |  | inactive: -3.42% |
| O=C(c1cnn2ccccc12)N1CCN(C2CCCCC2)CC1 | inconclusive: 35.5 µM [inhibitor, single point] |  |
| O=C(c1c(F)cccc1F)N1CCN(c2ncccn2)CC1 | inconclusive: 39.8 µM [inhibitor, single point] |  |
| O=C(O)C1CCCN1S(=O)(=O)c1ccc2[nH]c(=O)c(=O)[nH]c2c1 (centres undefined) | inconclusive: 28.2 µM [inhibitor, single point] |  |
| COc1ccc2oc(-c3ccccc3)c(OC)c(=O)c2c1 | inconclusive: 35.5 µM [inhibitor, partial curve] |  |
| COC(=O)c1sc(C(=O)OC)c(C(=O)OC)c1C(=O)OC |  | inactive: 2.69% |
| CCSc1nnc(NC(=O)c2cccs2)s1 | inconclusive: 39.8 µM [inhibitor, single point] |  |
| COc1cccc(-n2c(C)cc(/C=C3/C(=N)N4C(=NC3=O)SN=C4S(C)(=O)=O)c2C)c1 | inconclusive: 22.4 µM [inhibitor, single point] |  |
| COc1ccc(-c2ccc(S(=O)(=O)N3CCCC3)cc2)cc1 | inconclusive: 25.1 µM [inhibitor, partial curve] |  |
| OCCN1CCN(C(c2cccs2)c2ccc3cccnc3c2O)CC1 (centres undefined) | active: 8.91 µM |  |
| CCOc1ccc2[nH]c(=O)c(C(c3nnnn3Cc3ccco3)N3CCN(C)CC3)cc2c1 (centres undefined) | inconclusive: 35.5 µM [inhibitor, single point] |  |
| Cc1ccccc1C(=O)Nc1cccc(-c2ccc3nncn3n2)c1 |  | inactive: -10.4% |
| N#Cc1cnn2c(N)c(-c3ccc(Cl)cc3)cnc12 | inconclusive: 35.5 µM [inhibitor, single point] |  |
| COc1cc(/C=N/N=C(N)N)ccc1OCc1ccccc1Cl |  | inactive: -4.17% |
